Positions count from the first letter of the chain named. Some of the results follow.
T1: RBFOX1 RRM RbFoxmut (Fox-RRM*) (Homo sapiens, UniProt Q9NWB1 109-208, R118D;E147R;N151S;E152T)
T1 sequence: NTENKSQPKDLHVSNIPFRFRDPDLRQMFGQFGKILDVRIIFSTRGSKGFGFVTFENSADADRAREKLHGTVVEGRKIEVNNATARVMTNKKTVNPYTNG

B1: GAGUGCC (DNA:RNA)
RNA: GGGAGACCGGAAUUCAGAUUGUCCGAGUGCCUUAAAUCCCGUCGUAGCCACCA
DNA 1: CAATCTGAATTCCGGTCTCCC
DNA 2: TGGTGGCTACGACGGGATT
B2: CAAACCC (DNA:RNA)
RNA: B1 RNA with G25C, G27A, U28A, G29C
DNA 1: CAATCTGAATTCCGGTCTCCC
DNA 2: TGGTGGCTACGACGGGATT
B3: GAACUUG (DNA:RNA)
RNA: B1 RNA with G27A, U28C, G29U, C30U, C31G
DNA 1: CAATCTGAATTCCGGTCTCCC
DNA 2: TGGTGGCTACGACGGGATT
B4: UCUCGUU (DNA:RNA)
RNA: B1 RNA with G25U, A26C, G27U, U28C, C30U, C31U
DNA 1: CAATCTGAATTCCGGTCTCCC
DNA 2: TGGTGGCTACGACGGGATT
B5: AUGCGGG (DNA:RNA)
RNA: B1 RNA with G25A, A26U, U28C, C30G, C31G
DNA 1: CAATCTGAATTCCGGTCTCCC
DNA 2: TGGTGGCTACGACGGGATT
B6: ACGAUGU (DNA:RNA)
RNA: B1 RNA with G25A, A26C, U28A, G29U, C30G, C31U
DNA 1: CAATCTGAATTCCGGTCTCCC
DNA 2: TGGTGGCTACGACGGGATT
B7: CAACCGU (DNA:RNA)
RNA: B1 RNA with G25C, G27A, U28C, G29C, C30G, C31U
DNA 1: CAATCTGAATTCCGGTCTCCC
DNA 2: TGGTGGCTACGACGGGATT
B8: AAAGACU (DNA:RNA)
RNA: B1 RNA with G25A, G27A, U28G, G29A, C31U
DNA 1: CAATCTGAATTCCGGTCTCCC
DNA 2: TGGTGGCTACGACGGGATT
B9: UAUUUCC (DNA:RNA)
RNA: B1 RNA with G25U, G27U, G29U
DNA 1: CAATCTGAATTCCGGTCTCCC
DNA 2: TGGTGGCTACGACGGGATT
B10: GUGGGGA (DNA:RNA)
RNA: B1 RNA with A26U, U28G, C30G, C31A
DNA 1: CAATCTGAATTCCGGTCTCCC
DNA 2: TGGTGGCTACGACGGGATT
B11: UGGAAAU (DNA:RNA)
RNA: B1 RNA with G25U, A26G, U28A, G29A, C30A, C31U
DNA 1: CAATCTGAATTCCGGTCTCCC
DNA 2: TGGTGGCTACGACGGGATT
B12: ACAACCG (DNA:RNA)
RNA: B1 RNA with G25A, A26C, G27A, U28A, G29C, C31G
DNA 1: CAATCTGAATTCCGGTCTCCC
DNA 2: TGGTGGCTACGACGGGATT
B13: AGUUGAA (DNA:RNA)
RNA: B1 RNA with G25A, A26G, G27U, C30A, C31A
DNA 1: CAATCTGAATTCCGGTCTCCC
DNA 2: TGGTGGCTACGACGGGATT
B14: CGCCUGG (DNA:RNA)
RNA: GGGAGACCGGAAUUCAGAUUGUCCCGCCUGGUUAAAUCCCGUCGUAGCCACCA
DNA 1: CAATCTGAATTCCGGTCTCCC
DNA 2: TGGTGGCTACGACGGGATT
B15: CUAUGCA (DNA:RNA)
RNA: B1 RNA with G25C, A26U, G27A, C31A
DNA 1: CAATCTGAATTCCGGTCTCCC
DNA 2: TGGTGGCTACGACGGGATT
B16: CGUCAAU (DNA:RNA)
RNA: B14 RNA with C27U, U29A, G30A, G31U
DNA 1: CAATCTGAATTCCGGTCTCCC
DNA 2: TGGTGGCTACGACGGGATT
B17: UUCCUCA (DNA:RNA)
RNA: B14 RNA with C25U, G26U, G30C, G31A
DNA 1: CAATCTGAATTCCGGTCTCCC
DNA 2: TGGTGGCTACGACGGGATT
B18: UUUGGUC (DNA:RNA)
RNA: B1 RNA with G25U, A26U, G27U, U28G, C30U
DNA 1: CAATCTGAATTCCGGTCTCCC
DNA 2: TGGTGGCTACGACGGGATT
B19: CAGAGUA (DNA:RNA)
RNA: B1 RNA with G25C, U28A, C30U, C31A
DNA 1: CAATCTGAATTCCGGTCTCCC
DNA 2: TGGTGGCTACGACGGGATT
B20: UCCGUAC (DNA:RNA)
RNA: B14 RNA with C25U, G26C, C28G, G30A, G31C
DNA 1: CAATCTGAATTCCGGTCTCCC
DNA 2: TGGTGGCTACGACGGGATT
B21: GUUAGGG (DNA:RNA)
RNA: B14 RNA with C25G, G26U, C27U, C28A, U29G
DNA 1: CAATCTGAATTCCGGTCTCCC
DNA 2: TGGTGGCTACGACGGGATT
B22: CCCCUGA (DNA:RNA)
RNA: B14 RNA with G26C, G31A
DNA 1: CAATCTGAATTCCGGTCTCCC
DNA 2: TGGTGGCTACGACGGGATT
B23: UAGUUUA (DNA:RNA)
RNA: B1 RNA with G25U, G29U, C30U, C31A
DNA 1: CAATCTGAATTCCGGTCTCCC
DNA 2: TGGTGGCTACGACGGGATT
B24: GGCUGGC (DNA:RNA)
RNA: B1 RNA with A26G, G27C, C30G
DNA 1: CAATCTGAATTCCGGTCTCCC
DNA 2: TGGTGGCTACGACGGGATT
B25: UUGCCUC (DNA:RNA)
RNA: B1 RNA with G25U, A26U, U28C, G29C, C30U
DNA 1: CAATCTGAATTCCGGTCTCCC
DNA 2: TGGTGGCTACGACGGGATT
B26: UGGACGU (DNA:RNA)
RNA: B14 RNA with C25U, C27G, C28A, U29C, G31U
DNA 1: CAATCTGAATTCCGGTCTCCC
DNA 2: TGGTGGCTACGACGGGATT
B27: AGUGCGC (DNA:RNA)
RNA: B14 RNA with C25A, C27U, C28G, U29C, G31C
DNA 1: CAATCTGAATTCCGGTCTCCC
DNA 2: TGGTGGCTACGACGGGATT
B28: CAAUCGA (DNA:RNA)
RNA: B14 RNA with G26A, C27A, C28U, U29C, G31A
DNA 1: CAATCTGAATTCCGGTCTCCC
DNA 2: TGGTGGCTACGACGGGATT
B29: CGGGUUU (DNA:RNA)
RNA: B14 RNA with C27G, C28G, G30U, G31U
DNA 1: CAATCTGAATTCCGGTCTCCC
DNA 2: TGGTGGCTACGACGGGATT
B30: ACGUUUC (DNA:RNA)
RNA: B1 RNA with G25A, A26C, G29U, C30U
DNA 1: CAATCTGAATTCCGGTCTCCC
DNA 2: TGGTGGCTACGACGGGATT
B31: AGAGUGC (DNA:RNA)
RNA: B14 RNA with C25A, C27A, C28G, G31C
DNA 1: CAATCTGAATTCCGGTCTCCC
DNA 2: TGGTGGCTACGACGGGATT

What follows are binders tested against T1, RBFOX1 RRM RbFoxmut (Fox-RRM*) (assay: EMSA; HiTS-Eq, 1 nM pool, 10 min; buffer printed only for the single-RNA assays: 10 mM Tris pH 7.5, 150 mM NaCl, 3.4 mM EDTA, 0.001% NP-40, 30 C). Conditions: tags: His6 N-terminal (pET28a); label: 5' 32P.
Outline: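 These values rest on relative association constants, computed from read-count changes of each RNA species versus the control reaction and normalised to the cognate motif. Reads came from free RNA recovered by 8% native PAGE after purified RbFox RRM (wild type or mutant) at increasing concentrations was equilibrated for 10 min in 50 µL with 1 nM of a 5′-radiolabelled pool with 7 randomized nucleotides and DNA-annealed flanks.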

Row | Binder | binding signal
1 | B1 | 0.18 KA relative to UGCAUGU
2 | B2 | 0.0755 KA relative to UGCAUGU
3 | B3 | 0.0885 KA relative to UGCAUGU
4 | B4 | 0.108 KA relative to UGCAUGU
5 | B5 | 0.103 KA relative to UGCAUGU
6 | B6 | 0.149 KA relative to UGCAUGU
7 | B7 | 0.0769 KA relative to UGCAUGU
8 | B8 | 0.0797 KA relative to UGCAUGU
9 | B9 | 0.064 KA relative to UGCAUGU
10 | B10 | 0.0939 KA relative to UGCAUGU
11 | B11 | 0.0772 KA relative to UGCAUGU
12 | B12 | 0.0832 KA relative to UGCAUGU
13 | B13 | 0.104 KA relative to UGCAUGU
14 | B14 | 0.151 KA relative to UGCAUGU
15 | B15 | 0.208 KA relative to UGCAUGU
16 | B16 | 0.0652 KA relative to UGCAUGU

Row | Binder | binding signal
17 | B17 | 0.0935 KA relative to UGCAUGU
18 | B18 | 0.124 KA relative to UGCAUGU
19 | B19 | 0.145 KA relative to UGCAUGU
20 | B20 | 0.0905 KA relative to UGCAUGU
21 | B21 | 0.0712 KA relative to UGCAUGU
22 | B22 | 0.0997 KA relative to UGCAUGU
23 | B23 | 0.136 KA relative to UGCAUGU
24 | B24 | 0.106 KA relative to UGCAUGU
25 | B25 | 0.072 KA relative to UGCAUGU
26 | B26 | 0.147 KA relative to UGCAUGU
27 | B27 | 0.112 KA relative to UGCAUGU
28 | B28 | 0.0434 KA relative to UGCAUGU
29 | B29 | 0.0926 KA relative to UGCAUGU
30 | B30 | 0.0814 KA relative to UGCAUGU
31 | B31 | 0.125 KA relative to UGCAUGU
